Reference: patent US20250177546A1, “ROR1-TARGETED BINDING MOLECULE AND USE THEREOF” (SANYOU BIOPHARMACEUTICALS CO., LTD., priority 2022, published 2025)
“Also recorded” adds a separate entry of the source. Each block holds one molecule with its values, some of them ahead of it.

What was measured:
[1] = target: T1, human ROR1 on A549 tumor cells (Homo sapiens, UniProt Q01973); experiment: FACS binding to A549 tumor cells; conditions: in words, relative to control 99961.1 (ADC: 99961.1-MMAE)
T1 construct: endogenous in cells; host or cells: A549 (human non-small cell lung cancer)

huROR1-HEK293 cells = experiment: Antibody internalization by Fab-Zap method (MTS readout); format: cell-based, human; conditions: 48 h, relative to control antibody 99961.1
[2] = target: T2, human ROR1 on HT-29 tumor cells (Homo sapiens, UniProt Q01973); experiment: FACS binding to HT-29 tumor cells; conditions: relative to corresponding positive controls (99961.1, 99961.1-MMAE)
T2 construct: endogenous in cells; host or cells: HT-29 (human colon cancer)

[3] = target: T3, mouse ROR1 antigen protein MusROR1-His (Mus musculus, UniProt Q9Z139); experiment: ELISA cross-reactivity between species (MusROR1-His); format: binding
T3 construct: MusROR1 ECD AA30-406 (Uniprot ID: Q9Z139); made in house; host or cells: HEK293 (transient transfection, pcDNA3.4)

[4] = target: T4, human ROR2 antigen protein huROR2-His (Homo sapiens, UniProt Q01974); experiment: ELISA cross-reactivity between homologous groups (huROR2-His); format: binding
T4 construct: huROR2 ECD AA34-403 (Uniprot ID: Q01974); made in house; host or cells: HEK293 (transient transfection, pcDNA3.4)

[5] = target: T5, antigen protein huROR1-His (Homo sapiens, UniProt Q01973); experiment: Affinity kinetics (Gator); format: binding
T5 construct: huROR1 ECD AA30-406 (Uniprot ID: Q01973); made in house; host or cells: HEK293 (transient transfection, pcDNA3.4)

[6] = target: T5, antigen protein huROR1-His; experiment: Affinity kinetics (Biacore); format: binding; conditions: immobilised huROR1-His, 1:1 Langmuir model

T5 sequence (Q01973 30-406): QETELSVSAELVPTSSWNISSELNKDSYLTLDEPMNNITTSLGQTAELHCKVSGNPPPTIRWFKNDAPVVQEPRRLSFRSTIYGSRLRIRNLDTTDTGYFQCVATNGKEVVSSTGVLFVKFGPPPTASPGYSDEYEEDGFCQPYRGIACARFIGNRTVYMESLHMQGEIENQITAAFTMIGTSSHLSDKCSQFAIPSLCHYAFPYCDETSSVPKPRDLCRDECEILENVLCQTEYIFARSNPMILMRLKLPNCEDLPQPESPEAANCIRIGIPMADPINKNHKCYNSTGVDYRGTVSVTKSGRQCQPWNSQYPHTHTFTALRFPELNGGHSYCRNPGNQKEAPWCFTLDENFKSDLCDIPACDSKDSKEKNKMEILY
T3 sequence (Q9Z139 30-406): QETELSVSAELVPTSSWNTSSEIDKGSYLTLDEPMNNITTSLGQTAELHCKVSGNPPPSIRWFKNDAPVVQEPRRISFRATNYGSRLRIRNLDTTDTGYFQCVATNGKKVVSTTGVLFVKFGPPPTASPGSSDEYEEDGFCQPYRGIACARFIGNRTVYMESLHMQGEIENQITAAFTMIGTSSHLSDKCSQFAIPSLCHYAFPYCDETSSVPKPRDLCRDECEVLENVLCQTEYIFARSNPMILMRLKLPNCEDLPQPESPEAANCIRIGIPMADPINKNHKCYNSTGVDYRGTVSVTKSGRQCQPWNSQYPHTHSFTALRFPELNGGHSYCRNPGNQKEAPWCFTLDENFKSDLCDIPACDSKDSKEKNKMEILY
T4 sequence (Q01974 34-403): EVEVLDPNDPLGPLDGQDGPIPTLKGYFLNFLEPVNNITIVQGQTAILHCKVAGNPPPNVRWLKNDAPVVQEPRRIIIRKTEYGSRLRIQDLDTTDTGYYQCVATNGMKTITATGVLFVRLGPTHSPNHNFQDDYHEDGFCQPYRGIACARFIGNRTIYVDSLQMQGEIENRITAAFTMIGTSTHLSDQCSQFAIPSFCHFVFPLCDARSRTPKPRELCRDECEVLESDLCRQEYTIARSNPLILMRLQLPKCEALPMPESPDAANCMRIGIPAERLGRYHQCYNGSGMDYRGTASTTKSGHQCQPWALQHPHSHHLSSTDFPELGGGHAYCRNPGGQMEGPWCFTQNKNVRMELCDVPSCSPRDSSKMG
T1 sequence (Q01973 30-937): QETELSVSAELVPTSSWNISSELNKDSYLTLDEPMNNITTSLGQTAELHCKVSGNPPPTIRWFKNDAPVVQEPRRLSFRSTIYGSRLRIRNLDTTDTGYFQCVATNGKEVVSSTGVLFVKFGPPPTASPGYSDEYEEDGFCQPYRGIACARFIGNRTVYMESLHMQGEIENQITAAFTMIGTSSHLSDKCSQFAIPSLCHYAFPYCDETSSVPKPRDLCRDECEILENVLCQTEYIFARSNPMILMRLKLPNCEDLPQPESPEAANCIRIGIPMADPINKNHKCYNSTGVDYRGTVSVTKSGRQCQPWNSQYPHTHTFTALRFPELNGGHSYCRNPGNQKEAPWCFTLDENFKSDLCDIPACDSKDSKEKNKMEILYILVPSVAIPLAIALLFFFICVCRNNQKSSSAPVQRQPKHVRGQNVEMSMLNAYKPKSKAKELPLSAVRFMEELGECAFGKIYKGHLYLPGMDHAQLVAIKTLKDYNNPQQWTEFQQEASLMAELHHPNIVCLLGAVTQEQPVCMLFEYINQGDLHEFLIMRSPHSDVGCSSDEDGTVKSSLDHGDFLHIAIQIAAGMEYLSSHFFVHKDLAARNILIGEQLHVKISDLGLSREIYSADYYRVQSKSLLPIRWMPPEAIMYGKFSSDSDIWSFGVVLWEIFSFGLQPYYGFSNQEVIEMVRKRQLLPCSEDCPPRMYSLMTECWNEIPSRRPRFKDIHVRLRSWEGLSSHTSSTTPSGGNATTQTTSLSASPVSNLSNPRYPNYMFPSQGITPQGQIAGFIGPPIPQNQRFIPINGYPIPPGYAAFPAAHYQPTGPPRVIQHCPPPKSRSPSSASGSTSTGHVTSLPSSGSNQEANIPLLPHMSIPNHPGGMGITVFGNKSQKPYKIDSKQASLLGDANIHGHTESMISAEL
T2 sequence (Q01973 30-937): as above

B1: B62-H3L3: humanized anti-ROR1 antibody derived from murine antibody B62; CDRs SEQ ID NO 1-3, 28-30 (antibody)
heavy: EVQLVESGGGLVQPGGSLRLSCAASGFTFSSYVMSWVRQAPGKGLEYVATINSNGGNTYYADSVKGRFTISRDNSKNTLYLQMGSLRAEDTAMYYCARDSLGLRRRDYAMDYWGQGTTVTVSS[human IgG1 constant region not listed]
light: DIQMTQSPSSLSASVGDRVTITCVTSIDIDDDVNWYQQKPGKAPKLLISAGNTLRPGVPSRFSGSGSGTDFTFTISSLQPEDIATYYCLQSDNLPYTFGGGTKLEIKRTVAAPSVFIFPPSDEQLKSGTASVVCLLNNFYPREAKVQWKVDNALQSGNSQESVTEQDSKDSTYSLSSTLTLSKADYEKHKVYACEVTHQGLSSPVTKSFNRGEC
- binding activity/affinity to A549 tumor cells [1]: superior to those of the corresponding positive controls
- internalization effect/rate (Fab-Zap) (huROR1-HEK293 cells): comparable to that of the control antibody 99961.1
- binding activity to HT-29 cells [2]: slightly superior to those of the corresponding positive controls

- MusROR1-His [3]: no binding
- huROR2-His [4]: no binding
- Ka [5]: 383000 M⁻¹ s⁻¹
- Kd [5]: 0.00217 s⁻¹
- Rmax (nm) [5]: 0.723 nm
- ka [6]: 653000 M⁻¹ s⁻¹
- kd [6]: 0.000817 s⁻¹
B2: B31: chimeric anti-ROR1 antibody, murine clone B31 variable regions with human IgG1/kappa; CDRs SEQ ID NO 4-6, 31-33 (antibody)
heavy: EVMLVESGGGLVKPGGSLKLSCAASGFTFSRYAMSWVRQTPEKRLEWVASISRGGSTYYPDSVKGRFTISRDNARNILYLQMSSLRSEDTAMYYCASYFGNYDAMDYWGQGTSVTVSS[human IgG1 constant region not listed]
light: DIQMNQSPSSMYASLGERVTITCKASQDINNYVSWFQQKPGKSPKTLIYRANRLVDGVPSRFSGSGSGQDYSFTISSLEYEDMGIYYCLQFDEFPYTFGGGTKLEIKRTVAAPSVFIFPPSDEQLKSGTASVVCLLNNFYPREAKVQWKVDNALQSGNSQESVTEQDSKDSTYSLSSTLTLSKADYEKHKVYACEVTHQGLSSPVTKSFNRGEC

- huROR2-His [4]: no binding
- Ka [5]: 379000 M⁻¹ s⁻¹
- Kd [5]: 0.000373 s⁻¹
- Rmax (nm) [5]: 1.400 nm
- ka [6]: 1.21e+06 M⁻¹ s⁻¹
- kd [6]: 7.74e-05 s⁻¹
B3: B62: chimeric anti-ROR1 antibody, murine clone B62 variable regions with human IgG1/kappa constant regions; CDRs SEQ ID NO 1-3, 28-30 (antibody)
heavy: DVKLVESGGGLVQPGGSLKLSCAASGFTFSSYVMSWVRQTPDKRLELVATINSNGGNTYYPDSVKGRFTISRDNAKNTLYLQMSSLKSEDTAMYYCARDSLGLRRRDYAMDYWGQGTSVTVSS[human IgG1 constant region not listed]
light: DIVLTQSPASLSMAIGEKVTIRCVTSIDIDDDVNWYQQKPGKPPKLLISAGNTLRPGVPSRFSSSGYGTDFVFTIENMLSEDVADYYCLQSDNLPYTFGGGTKLEIKRTVAAPSVFIFPPSDEQLKSGTASVVCLLNNFYPREAKVQWKVDNALQSGNSQESVTEQDSKDSTYSLSSTLTLSKADYEKHKVYACEVTHQGLSSPVTKSFNRGEC
- MusROR1-His [3]: bind to the antigen protein MusROR1-His; also recorded: binding
